# In PubChem BioAssay AID2451 (National Center for Advancing Translational Sciences (NCATS), 2010):
# Where “and” joins values, the source holds several entries; their conditions need not be identical. Identical values can stand only once. Screen size: about 290,000 compounds; about 2,100 (0.72%) were called active. This list was built around the results that the source calls inconclusive (neither active nor inactive); the mix of calls is not that of the screen. The call rests on the fitted dose curve; in most records, active means well fitted inhibition curve with a large enough effect; inconclusive means small, poorly fitted or top-dose-only effect, or effect the other way; inactive means flat fitted curve, though single readings scatter. A potency beside an inconclusive call is a rough fit, not a confirmed value.
# Molecular target: Fructose-bisphosphate aldolase (Giardia intestinalis (strain ATCC 50803 / WB clone C6)) (UniProt A8B2U2)
# Experiment: qHTS Assay for Inhibitors of Fructose-1,6-bisphosphate Aldolase from Giardia Lamblia; further: nearly all actives have a fitted effect of over 55% in size
# Settings: purified Giardia FBPA; series mostly up to 59.6 µM
# Method in brief: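 40 nM FBPA preincubated 10 min at RT with compound (up to 57.5 uM final), then substrate plus GAPDH/TPI/NAD/arsenate coupling and diaphorase/resazurin added. Fluorescence read after 20 min at RT, 525/598 nm.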
# Potency means the concentration at half of the fitted maximal effect; tags describe the fitted curve by direction and shape.
# Chain of UniProt A8B2U2 (A8B2U2 whole entry, looked up): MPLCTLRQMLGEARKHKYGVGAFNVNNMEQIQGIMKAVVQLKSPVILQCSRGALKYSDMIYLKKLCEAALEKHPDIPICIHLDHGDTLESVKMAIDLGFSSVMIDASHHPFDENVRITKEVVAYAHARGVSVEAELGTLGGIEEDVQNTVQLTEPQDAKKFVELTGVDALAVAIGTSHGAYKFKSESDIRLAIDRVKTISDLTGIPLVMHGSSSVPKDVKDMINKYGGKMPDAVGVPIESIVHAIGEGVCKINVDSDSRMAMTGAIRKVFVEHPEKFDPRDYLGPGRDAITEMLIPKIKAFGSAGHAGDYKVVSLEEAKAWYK
row,Compound,Potency
1,COc1ccccc1N1CCN(CCCCOc2c(OC)cccc2OC)CC1,"inconclusive: 14.1 µM [inhibitor, partial curve]"
2,COc1ccc(/C=N/n2cnnc2)cc1COc1ccccn1,inactive
3,O=C(C1CCCN(Cc2ccc(F)cc2)C1)N1CCCCC1 (stereo not drawn),"inconclusive: 14.1 µM [inhibitor, single point]"
4,Oc1ccccc1N=Nc1nc(-c2ccccc2)c(-c2ccccc2)[nH]1,"inconclusive: 44.6 µM [activator, single point]"
5,Cc1nc(NC(=O)/C=C/c2ccccc2)sc1C(=O)N(C)C,inactive
6,CSc1cccc(NC(=O)/C=C/c2cccc(Cl)c2)c1,inactive
7,Clc1ccc(OCCOCCN2CCCCC2)c(Br)c1,"inconclusive: 19.9 µM [inhibitor, partial curve]"
8,CCOC(=O)C1=C(NC#N)OC(C)=C(C)C1c1ccc(O)cc1 (stereo not drawn),"inconclusive: 35.5 µM [inhibitor, single point]"
9,CCC(C)Nc1nc(-c2c[nH]c3ccccc23)cs1 (stereo not drawn),"inconclusive: 31.6 µM [inhibitor, partial curve]"
10,CC(C)c1ccc(OCC(O)Cn2cnc3ccccc32)cc1 (stereo not drawn),"inconclusive: 31.5 µM [activator, single point]"
11,N#CC1=C2SCN(Cc3ccco3)CN2C(=O)CC1c1ccccc1F (stereo not drawn),"inconclusive: 1.12 µM [inhibitor, full curve]"
12,COc1ccc(CCNC(=O)CN2CCCc3ccccc32)cc1OC,"inconclusive: 17.7 µM [inhibitor, single point]"
13,CC1CCCN(C(C(=O)NC2CCCCC2)c2cc3c(cc2[N+](=O)[O-])OCO3)C1 (stereo not drawn),"inconclusive: 44.6 µM [inhibitor, single point]"
14,COC(=O)CCN1CCN(S(=O)(=O)c2ccccc2Br)CC1,"inconclusive: 11.2 µM [inhibitor, partial curve]"
15,Nn1cnnc1N/N=C/c1cc([N+](=O)[O-])c(Cl)cc1Cl,"inconclusive: 7.92 µM [inhibitor, partial curve]"
16,CC1Cc2ccccc2N1C(=O)CN1CCN(Cc2ccccc2)CC1 (stereo not drawn),"inconclusive: 12.6 µM [inhibitor, partial curve]"
17,Nc1ccc2nc(C3CCCCC3)[nH]c2c1,"inconclusive: 17.7 µM [inhibitor, partial curve]"
18,N=C1C=CC=C2C1=NC1(CCCCC1)N2O,"inconclusive: 8.91 µM [inhibitor, partial curve]"
19,CN(C)CCN=Cc1c(O)n(-c2cccc3ccccc23)c(=O)[nH]c1=O,inactive
20,O=C(Nc1nnc(CSCc2ccc(F)cc2)s1)c1cccc([N+](=O)[O-])c1,"inconclusive: 14.1 µM [inhibitor, partial curve]"
21,COC(=O)c1ccccc1NC(=O)CSc1nc2c(c(=O)[nH]1)CCC2,"inconclusive: 22.4 µM [inhibitor, single point]"
22,CCCC[n+]1ccn(-c2nc3ccccc3nc2[N-]S(=O)(=O)c2cccs2)c1,"inconclusive: 31.5 µM [inhibitor, single point]"
23,O=c1[nH][nH]c(=S)n1C1CCCCC1,active: 19.9 µM
24,CNS(=O)(=O)c1ccc(NC(=O)c2cc(-c3ccncc3)nc3ccc(Cl)cc23)cc1,inactive
25,Nc1nc(-c2ccccc2)c(-c2ccc([N+](=O)[O-])cc2)s1,inactive

row,Compound,Potency
1,COc1ccc(C2CC2/C(=N/O)c2ccccn2)cc1 (stereo not drawn),"inconclusive: 35.4 µM [inhibitor, single point]"
2,Cc1cc(-n2nnc3ccccc32)nc2ccccc12,inactive
3,CCOC(=O)N1CCN(Cc2ccccc2Cl)CC1,"inconclusive: 17.8 µM [inhibitor, partial curve]"
4,O=C1NC(=O)C(=Cc2ccccc2OCCOc2ccc([N+](=O)[O-])cc2)C(=O)N1,"inconclusive: 4.46 µM [inhibitor, single point]"
5,COc1ccccc1N1CCN(C(=O)Cc2cccs2)CC1,"inconclusive: 44.6 µM [inhibitor, single point]"
6,COC(=O)c1sccc1NC(=O)c1ccc(C(C)C)cc1,inactive
7,COc1ccc(CNC(=O)c2ccc(Br)s2)cc1OC,inactive
8,Cc1cc(NC(=O)CSCC(=O)N(c2ccc(F)cc2)C(C(=O)NC2CCCCC2)c2ccc(O)c(O)c2)no1 (stereo not drawn),"inconclusive: 4.46 µM [inhibitor, full curve, poor fit]"
9,Clc1cccc(CN2CCSCC2)c1,"inconclusive: 15.8 µM [inhibitor, single point]"
10,CCCCCNc1nc(N2CCCC2)c2c(c1C#N)CCN(C)C2,"inconclusive: 15.8 µM [inhibitor, partial curve]"
11,Cc1ccc(O)c(/C=N/NC(=O)c2[nH]ncc2Br)c1,"inconclusive: 7.06 µM [inhibitor, partial curve]"
12,CC[C@H](C)[C@@H](NC(=O)O[C@@H]1Cc2cc(OC)ccc2O[C@H]1c1cccc(OC)c1)C(=O)OC,inactive
13,O=C(Nc1nnc(-c2ccccc2Cl)o1)c1ccco1,"inconclusive: 31.5 µM [inhibitor, single point]"
14,C/C(CC(=O)Nc1ccc(N(C)C)cc1)=N\NC(=O)c1ccccn1,"inconclusive: 15.8 µM [inhibitor, partial curve]"
15,COC(=O)/N=C(/Cc1ccc(OC)cc1)c1ccc(OC)cc1,inactive
16,O=C(O)/C=C/c1ccc(-c2cccc(C(F)(F)F)c2)o1,"inconclusive: 19.9 µM [activator, single point]"
17,COc1ccc(/C(C)=N/Nc2nc3ccccc3n3cnnc23)cc1OC,"inconclusive: 15.8 µM [inhibitor, partial curve]"
18,CC(=O)c1ccc(C(=O)Nc2sc3c(c2C(N)=O)CCN(Cc2ccccc2)C3)cc1,"inconclusive: 28.2 µM [inhibitor, partial curve]"
19,CCOC(=O)c1c(/N=C/C2C(=O)NC(=S)NC2=O)sc2c1CCC2,"inconclusive: 17.7 µM [inhibitor, single point]"
20,Cc1ccc(C(=O)Nc2ccc(S(=O)(=O)Nc3ncccn3)cc2)cc1[N+](=O)[O-],active: 25.1 µM
21,O=C(NC(=S)N1C[C@H]2C[C@H](C1)c1cccc(=O)n1C2)c1ccc(Cl)cc1,"inconclusive: 2.82 µM [inhibitor, partial curve]"
22,COCc1cc(=O)[nH]c(N2CCN(c3ccccc3OC)CC2)n1,inactive
23,Cc1cc(C)c(C#N)c(SCc2ccc(C(=O)O)cc2)n1,"inconclusive: 15.8 µM [activator, partial curve]"
24,O=S(=O)(Nc1cccc2cccnc12)c1ccc(Br)s1,"inconclusive: 12.6 µM [inhibitor, partial curve]"
25,CN1c2cccc3cccc(c23)N(C)C1(C)C,"inconclusive: 15.8 µM [inhibitor, partial curve]"

row,Compound,Potency
1,CC(c1ccco1)N(C(=O)c1ccc(C(F)(F)F)cc1)c1ccccn1 (stereo not drawn),inactive
2,COc1cc(/C=N/NC(=O)c2cc3ccccc3cc2O)ccc1OCCN1CCCCC1,"inconclusive: 11.2 µM [inhibitor, partial curve]"
3,Cc1ccc(N2CC(C(=O)Nc3nnc(SCCN4CCOCC4)s3)CC2=O)cc1 (stereo not drawn),"inconclusive: 20 µM [inhibitor, partial curve]"
4,Cc1ccc2nc(-c3ccccn3)[nH]c2c1,inactive
5,CCOC(=O)N1CCN(C(=O)CSCc2ccccc2Cl)CC1,inactive
6,COc1ccccc1CCc1nnc(CCC(=O)NCC(C)Oc2cccnc2)o1 (stereo not drawn),inactive
7,O=C(Cc1cccs1)NNC(=S)NC(=O)c1ccccc1,"inconclusive: 11.2 µM [activator, partial curve]"
8,Cc1ccc(COc2ccc(/C=N/O)cc2)cc1,inactive
9,O=[N+]([O-])c1ccc(-n2nnnc2-c2ccccc2)c([N+](=O)[O-])c1,"inconclusive: 9.98 µM [inhibitor, partial curve]"
10,CSCCC(=O)Nc1nc(-c2ccccn2)cs1,active: 15.8 µM
11,COc1cc2c(cc1OC)C(c1ccccc1)CN(C)CC2 (stereo not drawn),inactive
12,CN(C)S(=O)(=O)c1cccc(CNCC2COc3ccccc3O2)c1 (stereo not drawn),"inconclusive: 17.8 µM [inhibitor, partial curve]"
13,CC1=NN(C(N)=S)C(=O)C1N=Nc1c(Br)cc(Br)cc1Br (stereo not drawn),"inconclusive: 12.6 µM [activator, partial curve, poor fit]"
14,N#C/C(=C\c1ccc(OC(=O)c2ccccn2)cc1)C(N)=O,"inconclusive: 15.8 µM [inhibitor, partial curve]"
15,O=C(CN1CCOCC1)N1CCCc2ccccc21,active: 12.6 µM
16,O=S(=O)(c1ccc(Cl)cc1)N(CCCN1CCOCC1)Cc1cccs1,"inconclusive: 22.3 µM [inhibitor, partial curve]"
17,COc1ccc(Cc2nn[nH]n2)cc1,"inconclusive: 14.1 µM [inhibitor, partial curve]"
18,O=C(Nc1ccc(Nc2ccccc2)cc1)c1ccc(F)cc1,inactive
19,O=C(CN1CCN(c2ccc(Cl)cc2[N+](=O)[O-])CC1)N1CCOCC1,inactive
20,CCOc1ccc(N=Nc2c(C)[nH]n(-c3ccccc3)c2=O)cc1,active: 7.94 µM
21,CCCCC1=CC2=CC(=O)C(C)(OC(=O)CC)C(=O)C2=CN1C1CCCC1 (stereo not drawn),"inconclusive: 141 nM [inhibitor, full curve] and inconclusive: 446 nM [inhibitor, full curve]"
22,C=CCNC(=S)Nc1c(N)n(C)c(=O)n(C)c1=O,"inconclusive: 15.8 µM [inhibitor, partial curve]"
23,Cc1c(OC(C(=O)O)c2ccccc2)ccc2c(-c3ccccc3)cc(=O)oc12 (stereo not drawn),"inconclusive: 17.7 µM [activator, single point]"
